Test results published in PubChem BioAssay AID485294 (National Center for Advancing Translational Sciences (NCATS), 2010).
About 150 (0.041%) of roughly 370,000 compounds were called active. This list was built around the results that the source calls inconclusive (neither active nor inactive); the mix of calls is not that of the screen. Calls follow the shape of the dose curve; as a rule, active = well fitted inhibition curve with a large enough effect; inconclusive = small, poorly fitted or top-dose-only effect; inactive = flat fitted curve, though single readings scatter. Potencies of inconclusive entries are left out as doubtful fits.

Molecular target: Beta-lactamase (Escherichia coli (strain K12)) (UniProt P00811)
Experiment: qHTS Inhibitors of AmpC Beta-Lactamase (assay with detergent); also: nearly all actives have a fitted effect of over 25% in size
Conditions: AmpC hydrolysis of nitrocefin, absorbance 480 nm, 0.01% Triton; series mostly up to 114 µM
How it was run: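 20 mM phosphate pH 7.0 + 0.01% (detergent screen) or 0.0001% Triton X-100; 5.3 nM AmpC reagent; cpd preinc 15 min RT; nitrocefin (800 uM stock) to start; A480 q20 s × 4 min; Activity was normalised to no-enzyme and no-compound control wells.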
Potency is read from the fitted curve at half-maximal effect; tags tell the direction and shape of the fitted curve.

Chain of UniProt P00811 (P00811 whole entry, looked up): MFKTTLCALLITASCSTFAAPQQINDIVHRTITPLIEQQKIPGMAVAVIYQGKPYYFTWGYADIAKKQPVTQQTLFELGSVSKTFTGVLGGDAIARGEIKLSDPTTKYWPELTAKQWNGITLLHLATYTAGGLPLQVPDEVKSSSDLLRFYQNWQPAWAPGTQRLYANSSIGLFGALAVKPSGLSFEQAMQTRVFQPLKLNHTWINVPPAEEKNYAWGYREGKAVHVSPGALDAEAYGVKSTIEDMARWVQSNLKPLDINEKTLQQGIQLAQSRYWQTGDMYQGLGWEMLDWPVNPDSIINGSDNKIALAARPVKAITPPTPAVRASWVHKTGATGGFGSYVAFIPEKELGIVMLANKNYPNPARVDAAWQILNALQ

Row | Compound | Potency
1 | CCC1Nc2ncnc(N3CCN(c4ccccc4)CC3)c2N(Cc2ccc(Br)cc2)C1=O (centres undefined) | inactive
2 | CCOC(=O)c1c(NC(=O)c2cc(-c3ccc(Cl)s3)nc3ccccc23)sc(C(N)=O)c1C | inconclusive [inhibitor, partial curve, poor fit]
3 | O=C1CC(c2ccccc2C(F)(F)F)c2c(c3ccccc3[nH]c2=O)O1 (centres undefined) | inactive
4 | COc1nc(N(C)S(=O)(=O)c2ccc(C)cc2)nc(C)c1Br | inconclusive [inhibitor, full curve, poor fit]
5 | Cc1cccc(NC(=O)CCNS(=O)(=O)c2ccc(Cl)cc2)c1 | inactive
6 | Cc1ccc(CN(Cc2ccccn2)C(=O)Nc2c(F)cccc2F)cc1 | inconclusive [inhibitor, full curve, poor fit]
7 | CCCCCCSc1cc(-c2nc3cc(C)ccn3c2NC2CCCCC2)ccc1OC | inactive
8 | CCC(C)NCC(O)COCc1ccc(Cl)cc1 (centres undefined) | inconclusive [inhibitor, partial curve]
9 | CC(C)(C)OC(=O)NCCc1nnc(S(=O)(=O)Cc2ccc(Cl)cc2Cl)o1 | inconclusive [inhibitor, full curve, poor fit]
10 | O=C(COC(=O)C1CC1)Nc1ccc(N=Nc2ccccc2)cc1 | inconclusive [inhibitor, partial curve]
11 | Cc1ccn(C(=O)c2ccc(NC(=O)C3CCCCC3)cc2)n1 | inconclusive [inhibitor, partial curve, poor fit]
12 | CCOC(=O)c1c2ccccc2[n+]([O-])n1[C@@H](C)C(N)=O | inactive
13 | O=C(c1ccco1)[C@@H]1[C@@H]2C(=O)N(c3ccc(Br)cc3)C(=O)[C@@H]2C2c3ccccc3C=CN21 (some centres undefined) | inconclusive [inhibitor, single point]
14 | CCCN1C=CC(=C2C(=O)c3ccccc3C2=O)C=C1 | inactive
15 | O=C(CO/N=C/c1ccccc1)Nc1c(F)c(F)c(F)c(F)c1F | inconclusive [inhibitor, full curve, poor fit]
16 | O=C(COC(=O)c1ccccc1N1C(=O)C2C3CCC(C3)C2C1=O)c1ccccc1 (centres undefined) | inconclusive [inhibitor, full curve, poor fit]
17 | COc1ccc(C)cc1NC(=O)CSc1nc2ccccc2nc1N1CCCCC1 | inactive
18 | Cc1oc(-c2ccc(Cl)cc2)nc1CS(=O)CC(=O)NCc1ccc(Cl)cc1 (centres undefined) | inactive
19 | COc1cc(CN2CCCC(C)C2)cc([N+](=O)[O-])c1O (centres undefined) | inconclusive [inhibitor, partial curve]
20 | COc1cccc(C(=O)Nc2ccccc2OCc2cc(=O)n3cc(C)ccc3n2)c1 | inactive
21 | CC1=C(C(=O)OCc2ccccc2)C(c2ccccc2OC(F)F)NC(=O)N1 (centres undefined) | inconclusive [inhibitor, full curve, poor fit]
22 | COc1ccc(NC(=O)CSc2n[nH]c(CNc3cccc(C)c3)n2)cc1 | inconclusive [inhibitor, single point]
23 | CCCNC(=O)C1CCN(S(=O)(=O)c2ccc3c(c2)CCCN3C(C)=O)CC1 | inactive

Row | Compound | Potency
24 | Cn1c(=O)c2c(SCC(=O)NCc3ccco3)nc(CC(C)(C)C)nc2n(C)c1=O | inconclusive [inhibitor, full curve]
25 | CCN(CC)CCCNC(=O)c1ccc2c(SCC(=O)O)c3c(nc2c1)CCC3 | inconclusive [inhibitor, full curve, poor fit]
26 | CCCSc1ccc(-c2nn(-c3ccccc3)cc2/C=C(/C#N)C(=O)NCCCOC)cc1 | inconclusive [inhibitor, full curve]
27 | O=c1c2[nH]c3ccccc3c2ncn1Cc1ccccn1 | inconclusive [inhibitor, full curve, poor fit]
28 | COc1ccc(CN2CCC(n3nccc3NC(=O)CCc3ccccc3)CC2)c(C)c1C | inconclusive [inhibitor, partial curve]
29 | Cc1ccc(S(=O)(=O)N2CCN(CC(=O)NCC3(N4CCOCC4)CCCCC3)CC2)cc1 | inconclusive [inhibitor, partial curve]
30 | Cc1ccc(-n2c(SCC(=O)NCC3CCCO3)nc3ccccc3c2=O)cc1C (centres undefined) | inconclusive [inhibitor, single point]
31 | CC(C)n1c(=O)[nH]c2ccccc21 | inconclusive [inhibitor, partial curve, poor fit]
32 | COCCN1C(=S)N[C@@H](c2cccc(F)c2)C(C(=O)OC)=C1C | inconclusive [inhibitor, partial curve]
33 | CCOc1cc(C)nc(NCCc2ccc(OC)c(OC)c2)n1 | inconclusive [inhibitor, full curve]
34 | O=C(NCCc1ccccc1)c1cccnc1 | inconclusive [inhibitor, full curve]
35 | O=C(NCc1cccnc1)C1CCN(Cc2cc3ccccc3n2Cc2cccc(Cl)c2)CC1 | inactive
36 | Cc1cc(=O)[nH]c(SCC(=O)/C=C2\N(C)c3ccccc3C2(C)C)n1 | inconclusive [inhibitor, partial curve, poor fit]
37 | Cn1c(CC(=O)Nc2ccccc2)c(Sc2ccccc2)c2ccccc21 | inconclusive [inhibitor, partial curve]
38 | O=C(Nc1cccc(C(=O)N2CCN(c3ccc(Cl)cc3)CC2)c1)c1nsc2ccccc12 | inactive
39 | CCOc1ccc(-c2nc(-c3cccnc3)no2)cc1 | inconclusive [inhibitor, full curve]
40 | CCN(C(=O)COC(=O)/C=C/c1ccco1)c1c(N)n(Cc2ccccc2)c(=O)[nH]c1=O | inactive
41 | Cc1cc(C(=O)COC(=O)c2csc3c2CCCC3)c(C)n1C | inconclusive [inhibitor, partial curve, poor fit]
42 | CC1CCc2sc(C(=O)OCC(=O)NC(C)C)cc2C1 (centres undefined) | inactive
43 | COc1cccc(NC(=O)NNC(=O)COc2ccc3ccccc3c2)c1 | inconclusive [inhibitor, full curve]
44 | Cc1cc(CN2CCCC(N3CCc4ccccc4C3)C2)cc(C)c1O (centres undefined) | inconclusive [inhibitor, full curve, poor fit]
45 | COC(=O)C1=CN(c2cccc(C)c2)C=C(C(=O)OC)C1c1cc(OC)c(O)c([N+](=O)[O-])c1 | inactive
46 | CCOc1ccccc1NC(=O)Cn1cnc2onc(-c3ccc(F)cc3)c2c1=O | inactive

Row | Compound | Potency
47 | O=C1CCCCN1CCCC(=O)N1CCCC(Nc2ccccc2)C1 (centres undefined) | inconclusive [inhibitor, full curve, poor fit]
48 | Cc1ccc(NC(=O)c2oc3ccccc3c2NC(=O)c2cc3ccccc3o2)cc1 | inactive
49 | CCCC(C(=O)NC(C)(C)C)N(Cc1ccccc1Cl)C(=O)c1snc(C(N)=O)c1N (centres undefined) | inconclusive [inhibitor, full curve, poor fit]
50 | CC(=O)Cc1nsc(NC(=O)c2ccc(-c3ccc(Cl)cc3Cl)o2)n1 | inactive
51 | COc1ccc(S(=O)(=O)N2CCN(C(=O)c3ccccn3)CC2)cc1 | inactive
52 | O=C(Nc1ccccc1-c1nnn(CC(=O)N2CCOCC2)n1)c1ccc(F)cc1 | inconclusive [inhibitor, single point]
53 | COc1ccc(-c2ccc(CNCc3ccccn3)o2)cc1Cl | inconclusive [inhibitor, full curve, poor fit]
54 | CC(C)C(=O)Nc1ccccc1N1CCN(C(=O)c2ccccc2)CC1 | inconclusive [inhibitor, full curve]
55 | CCC1CCCCN1CCCNC(=O)CS(=O)Cc1nc(-c2ccc(OC)c(OC)c2)oc1C (centres undefined) | inactive
56 | CCOC(=O)c1cc(-c2ccc(C)cc2)n(CCC(=O)N2CCN(c3ccccn3)CC2)c1C | inconclusive [inhibitor, full curve]
57 | Cc1ccc(-c2csc(NC(=O)c3ccc(C)o3)n2)cc1 | inconclusive [inhibitor, full curve, poor fit]
58 | COc1ccc(-c2nn(C)c(=O)[nH]2)cc1 | inactive
59 | COc1cc(OC)c(NC(=O)NC(C)c2c(-n3cccc3)sc(C)c2C)cc1Cl (centres undefined) | inactive
60 | CCC(C)C(=O)N1CCCC(c2nc(-c3cccs3)no2)C1 (centres undefined) | inconclusive [inhibitor, full curve, poor fit]
61 | COc1ccc(NC(=O)C2CCC(CNS(=O)(=O)c3cccs3)CC2)cc1 (centres undefined) | inactive
62 | CN1C(=O)N(C)C(=O)C2(Cc3ccccc3N3CCCC32)C1=O (centres undefined) | inactive
63 | O=S(=O)(Cc1cc(-c2ccc(Cl)cc2)no1)c1ccccc1 | inconclusive [inhibitor, full curve, poor fit]
64 | CC(=O)Nc1nnc(Cc2c[nH]c3ccccc23)s1 | inconclusive [inhibitor, full curve, poor fit]
65 | COCCOC(=O)C1=C(C)NC2=C(C(=O)CCC2)C1c1cc2c(cc1Br)OCO2 (centres undefined) | inconclusive [inhibitor, full curve, poor fit]
66 | O=C(Nc1ncccc1O)c1ccc2c(c1)OCCO2 | inconclusive [inhibitor, single point]
67 | O=C(c1ccco1)N1CCN(Cc2ccccc2Br)CC1 | inactive
68 | CC(C)C(NC(=O)C1CCCCC1)C(=O)Nc1ccncc1 (centres undefined) | inconclusive [inhibitor, full curve, poor fit]
69 | O=C(Nc1ccc(-n2cnnn2)cc1)C1CCCN1C(=O)Nc1ccc(Br)cc1 (centres undefined) | inconclusive [inhibitor, full curve, poor fit]
